Measurements taken from patent publication US20220185900A1 (Regeneron, published 2022).

Columns and labels:
hRET.mmh [1] = target: T1, hRET.mmh (human, UniProt P07949 part only, biotinylated in the ELISA of Example 4 (biot-hRET.mmh); not in the SPR of Example 3); assay: SPR Biacore T200, mAb capture, 25 C
T1 construct: also called biot-hRET.mmh; soluble monomeric human RET
Protocol: (§1) Binding affinities and kinetic constants of human anti-RET antibodies were determined by surface plasmon resonance (Biacore T200) at […] (Tables 2-3). […] Binding equilibrium dissociation constants (KD) and dissociative half-lives (t_{1/2}) were calculated from the kinetic rate constants as: KD [M]=kd/kₐ; and t_{1/2}(min)=(ln2/(60*kd). Calculations were performed using BiacoreT200 evaluation software v1.0.

[2] = target: T2, Macaca fascicularis (mf) RET.mmh (Macaca fascicularis); assay: SPR Biacore T200, mAb capture, 25 C
T2 construct: also called monkey RET
T2 chain: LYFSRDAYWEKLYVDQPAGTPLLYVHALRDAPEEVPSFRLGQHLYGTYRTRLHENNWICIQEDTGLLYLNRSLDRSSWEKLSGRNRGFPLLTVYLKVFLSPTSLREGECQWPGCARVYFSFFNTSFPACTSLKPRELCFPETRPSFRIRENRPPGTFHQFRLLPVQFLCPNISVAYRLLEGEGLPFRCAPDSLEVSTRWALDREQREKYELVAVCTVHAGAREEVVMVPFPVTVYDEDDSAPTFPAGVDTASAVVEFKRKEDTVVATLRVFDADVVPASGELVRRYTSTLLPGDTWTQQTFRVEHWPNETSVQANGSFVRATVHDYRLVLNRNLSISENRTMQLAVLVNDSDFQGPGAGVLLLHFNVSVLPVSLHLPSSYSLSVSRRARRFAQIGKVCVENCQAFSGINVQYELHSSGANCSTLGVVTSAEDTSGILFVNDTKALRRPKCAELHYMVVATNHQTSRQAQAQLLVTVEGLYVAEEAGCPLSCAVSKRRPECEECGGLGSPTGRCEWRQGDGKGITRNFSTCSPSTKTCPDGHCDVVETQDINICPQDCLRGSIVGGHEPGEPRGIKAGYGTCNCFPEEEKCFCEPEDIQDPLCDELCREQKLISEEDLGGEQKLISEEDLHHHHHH
Protocol: as §1

hRET.mFc [3] = target: T3, hRET.mFc (human); assay: SPR Biacore T200, mAb capture, 25 C
T3 construct: also called dimeric human RET
Protocol: as §1

hRET.mmh [4] = target: T1, hRET.mmh; assay: SPR Biacore T200, mAb capture, 37 C
Protocol: as §1

[5] = target: T2, Macaca fascicularis (mf) RET.mmh; assay: SPR Biacore T200, mAb capture, 37 C
Protocol: as §1

hRET.mFc [6] = target: T3, hRET.mFc; assay: SPR Biacore T200, mAb capture, 37 C
Protocol: as §1

hRET.mmh [7] = target: T1, hRET.mmh; assay: competition sandwich ELISA: 1 nM biot-hRET.mmh + antibody, plate-coated GDNF/GFRα1 co-complex
Protocol: The ability of anti-RET antibodies to block the binding of human RET to pre-complexed plate bound GDNF:GFRα1 was assessed using a competition sandwich ELISA.
Antibody-RET mixtures were incubated for 1 hour at RT and then transferred to microtiter plates previously coated with the hGDNF/hGFRα1 co-complex. Binding was allowed to proceed for 1 hr at RT followed by extensive washing. […] Plates were read at 450 nm and data analysis used a sigmoidal dose-response model within Prism™ software.
The absorbance values of the wells containing the highest concentration for each antibody were used to determine the blocking percent at maximum concentration antibody tested.

B1: H4H8048P (antibody, human IgG4, V domains shown)
VH: QVQLVESGGGVVQPGRSLRLSCAASGFTFSNYGMVWVRQAPGKGLEWVAFIWYDGSDKYYVD[sequence of about 20 residues omitted]MNSLRAEDTAVYFCARSGPSRHVFDIWGQGTMVTVSS
VL: not shown
notes: human IgG4 Fc (H4H prefix)
**Q.** With B1 as the binder, how does the Kd (hRET.mmh [1]) read?
**A.** 1.94 nM

**Q.** And the koff (hRET.mmh [1])?
**A.** 0.000493 s⁻¹

**Q.** And the kon (hRET.mmh [1])?
**A.** 254000 M⁻¹ s⁻¹

**Q.** And the t½ (hRET.mmh [1])?
**A.** 23 min

**Q.** And the Kd [2]?
**A.** 2.33 nM

**Q.** And the koff [2]?
**A.** 0.000535 s⁻¹

**Q.** What about the kon [2] of the same binder?
**A.** 230000 M⁻¹ s⁻¹

**Q.** What about the t½ [2] of the same binder?
**A.** 22 min

**Q.** And the Kd (hRET.mFc [3])?
**A.** 1.16 nM

**Q.** What about the koff (hRET.mFc [3]) of the same binder?
**A.** 0.000267 s⁻¹

**Q.** What about the kon (hRET.mFc [3]) of the same binder?
**A.** 231000 M⁻¹ s⁻¹

**Q.** What about the t½ (hRET.mFc [3]) of the same binder?
**A.** 43 min

**Q.** And the Kd (hRET.mmh [4])?
**A.** 7.14 nM

**Q.** And the koff (hRET.mmh [4])?
**A.** 0.00242 s⁻¹

**Q.** What about the kon (hRET.mmh [4]) of the same binder?
**A.** 339000 M⁻¹ s⁻¹

**Q.** What about the t½ (hRET.mmh [4]) of the same binder?
**A.** 5 min

**Q.** And the Kd [5]?
**A.** 8.6 nM

**Q.** What about the koff [5] of the same binder?
**A.** 0.00254 s⁻¹

**Q.** And the kon [5]?
**A.** 295000 M⁻¹ s⁻¹

**Q.** What about the t½ [5] of the same binder?
**A.** 5 min

**Q.** And the Kd (hRET.mFc [6])?
**A.** 3.89 nM

**Q.** And the koff (hRET.mFc [6])?
**A.** 0.00109 s⁻¹

**Q.** And the kon (hRET.mFc [6])?
**A.** 280000 M⁻¹ s⁻¹

**Q.** And the t½ (hRET.mFc [6])?
**A.** 11 min

**Q.** And the “% Max Blocking” value (hRET.mmh [7])?
**A.** 96%

**Q.** And the IC50 (hRET.mmh [7])?
**A.** < 0.25 nM
